The structures appear in SMILES notation. About 540 (0.36%) of roughly 150,000 compounds showed an effect of 50% or more. The list shows a part of the results.

This experiment concerns Plasmodium falciparum. The experiment in a line: Primary screen in NF54 nanoGlo assay, in single point, at 2uM, 72h; a lower Z score goes with more inhibition. Conditions: timepoint 72 hour. Type of experiment: functional, Erythrocyte.
By % Inhibition is commonly meant the change of the read-out against control, counted positive when it falls. As to `FC(F)(F)Cn1nc(-c2ccco2)nc1CC1CCNCC1`, the “% Inhibition” value is on record as -1% and the Z score turned out to be 0.12.
For the compound `CC(C)(Oc1ccc(F)cc1)c1nc(-c2cnccn2)no1`, the “% Inhibition” value is recorded as -12% and the Z score is 1.62.
On to `CC[C@H]1COCCN1S(=O)(=O)N1CCCCCC1`, for which the “% Inhibition” value is listed as -12% and the Z score is recorded as 1.08.
In the same order, the values of `CCS(=O)(=O)C1CN(C(=O)c2ccc(F)cc2O)C1` are -21% and 1.96.
In the same order, the values of `CC1CC(c2ccccc2)CN1S(=O)(=O)Cc1ccc(F)cc1C#N` (stereo unspecified) are 0% and -0.05.
Consider `Cn1cc(CN2CCN3C(=O)N(C4CCOCC4)C[C@H]3C2)cn1`, for which the “% Inhibition” value is 16% and the Z score is -1.86.
On to `NC(=O)CN(CCC1CCCCC1)C(=O)c1ccncc1`, for which the “% Inhibition” value is on record as 3% and the Z score is -0.55.
As to `O=C(Nc1ccncc1)N[C@H]1CC(=O)N(c2ccccc2)C1`, the “% Inhibition” value came out at 10% and the Z score is on record as -1.25.
In the same order, the values of `COc1ccc(CNC(=O)N2C3CCC2CC(n2cccn2)C3)cc1` (stereo unspecified) are -21% and 2.74.
On to `CC(C)[C@@H]1CN(C(=O)c2ccc(O)cn2)CCCN1CC1CC1`, for which the “% Inhibition” value is reported as -8% and the Z score amounted to 1.18.
In the same order, the values of `Cc1cc(C)n([C@@H](C)CNC(=O)CCc2scnc2C)n1` are -3% and 0.65.
On to `O=C(O)c1cc(-c2cccc3ccccc23)nc2ccccc12`, for which the “% Inhibition” value is listed as -2% and the Z score amounted to 0.29.
For `Cc1cc(CN(C)C(=O)c2c(C)noc2C(C)C)no1`, the “% Inhibition” value amounted to 2% and the Z score is given as -0.33.
For `Cc1nnc(NC(=O)c2cccc(C(=O)O)c2-c2ccccc2)s1` the same measures were -3% and 0.35.
For the compound `Cc1ccc(S(=O)(=O)N2CCN(S(=O)(=O)c3c(C)cc(C)cc3C)[C@H]2C(C)C)cc1`, the “% Inhibition” value worked out at 3% and the Z score is given as -0.42.
For `Cc1ccc(CNC2CCN(C)CC2)c(OCc2ccco2)c1` the same measures were 34% and -4.61.
As to `Cc1cc(C(=O)Nc2ccccc2Cl)cc2c1N(C)S(=O)(=O)c1ccccc1-2`, the “% Inhibition” value was 10% and the Z score is -1.27.
In the same order, the values of `O=C1NS(=O)(=O)c2cccnc2N1c1ccc(F)cc1` are -5% and 0.52.
On to `Cc1ccc(C(=O)C(=O)NCc2cccc(N(C)C)c2)cc1`, for which the “% Inhibition” value is on record as -6% and the Z score came out at 0.74.
Regarding `Cc1noc(C)c1CN(C)C(=O)c1ccc(-c2cncn2C)cc1`, the “% Inhibition” value was -2% and the Z score was found to be 0.42.
In the same order, the values of `COCCn1cc(NC(=O)N(CCC(F)(F)F)C2CCCC2)cn1` are -3% and 0.43.
On to `COc1cn(CC(=O)Nc2cc(C)on2)c(CN2CCOCC2)cc1=O`, for which the “% Inhibition” value is recorded as -3% and the Z score was 0.57.
Regarding `OCc1cc(-c2ccc3ccccc3c2)on1`, the “% Inhibition” value was 2% and the Z score was -0.22.
As to `CCN(CC)CCN1CN(Cc2ccccc2)c2nc3ccccc3n2C1`, the “% Inhibition” value is listed as -10% and the Z score is reported as 1.61.
For `C#CCOc1cccc(Oc2ncnc3onc(C)c23)c1` the same measures were -12% and 1.4.
In the same order, the values of `Cc1ccc(NC(=O)CN(C)S(=O)(=O)c2ccc3c(c2)C[C@H](C)N3C(=O)C2CCC2)c(Cl)c1` are -5% and 0.87.
In the case of `C=CCn1cc(CN2CCc3[nH]cnc3[C@@H]2Cc2ccccc2)cn1`, the “% Inhibition” value is -5% and the Z score was 0.8.
For `C[C@]1(O)CCN(S(=O)(=O)C2CCC2)C1`, the “% Inhibition” value was -3% and the Z score was determined as 0.27.
For `c1csc(-c2nc(-c3ccc4nncn4c3)no2)c1` the same measures were -16% and 2.76.
For `O=C(NCCF)NC1CCOC(c2ccc(F)cc2)C1` (stereo unspecified) the same measures were 9% and -1.47.
In the same order, the values of `O=C(Cn1cc(-c2ccccc2)sc1=O)NCCC1=CCCCC1` are -8% and 1.2.
Regarding `O=C(CCCc1ccccn1)Nc1cccc(-c2nnco2)c1`, the “% Inhibition” value is listed as -3% and the Z score is listed as 0.4.
Regarding `Cc1ccn(CC(=O)N2CCC([C@]3(C)NC(=O)N(Cc4ccc(F)cc4)C3=O)CC2)n1`, the “% Inhibition” value was 0% and the Z score turned out to be 0.04.
In the case of `C=CC[C@]1(CO)CCCN(C(=O)c2cccc(N3CCCC3=O)c2)C1`, the “% Inhibition” value is recorded as -4% and the Z score came out at 0.88.
In the case of `O=C(c1ccncc1)N1CC2CC1CO2` (stereo unspecified), the “% Inhibition” value is recorded as -7% and the Z score is on record as 1.43.
For `Cc1cc(S(=O)(=O)NC2CC3CCC(C2)N3)sc1C` (stereo unspecified) the same measures were -6% and 0.75.
In the same order, the values of `CCCCOc1ccc(C(=O)Nc2ccc(-n3nc(OCCOCC)nc3-c3cccc(C(F)(F)F)c3)cc2)cc1` are -20% and 1.93.
For `CC(C)(C)n1cc(C=Cc2cc(O)nc(C3CC3)n2)nn1` the same measures were -14% and 2.62.
For `CC(C)(C(=O)O)c1cnc(NC2CCCCCCC2)nc1N1CCOCC1`, the “% Inhibition” value is listed as -8% and the Z score is 1.41.
For `CN(Cc1cnn(Cc2ccccc2)c1)S(=O)(=O)c1ccc2c(c1)CCCC2` the same measures were 1% and -0.07.
On to `COCCN1CC(=O)N[C@H]2CN(CCCn3ccnc3C)C[C@@H]2OCc2cccc(c2)Oc2cc(ccc2OC)CCC1=O`, for which the “% Inhibition” value is 21% and the Z score is -2.92.
For `C[C@]1(n2cc(CNc3cc(F)ccc3F)cn2)CCS(=O)(=O)C1` the same measures were -4% and 0.48.
For `CCOc1ccc(-c2c[nH]c(-c3ccccc3O)n2)cc1` the same measures were 0% and 0.05.

These data come from ChEMBL document CHEMBL4888484, “Replenishing the malaria drug discovery pipeline: Screening and hit evaluation of the MMV Hit Generation Library 1 (HGL1) against asexual blood stage Plasmodium falciparum ,using a nano luciferase reporter read-out” (2022).
